Source: paper PMC4336329 (PLoS ONE, 2015)
Screen size: about 310,000 compounds; about 2,200 (0.71%) showed an effect of 50% or more. The effect is printed as a negative number. This is one part of the list.

Target: human ether-à-go-go-related gene (hERG) potassium channel (human, UniProt Q12809)
Test: primary screen, population patch clamp on CHO cells stably expressing hERG

Chain of human ether-à-go-go-related gene (hERG) potassium channel (Q12809 whole entry, looked up): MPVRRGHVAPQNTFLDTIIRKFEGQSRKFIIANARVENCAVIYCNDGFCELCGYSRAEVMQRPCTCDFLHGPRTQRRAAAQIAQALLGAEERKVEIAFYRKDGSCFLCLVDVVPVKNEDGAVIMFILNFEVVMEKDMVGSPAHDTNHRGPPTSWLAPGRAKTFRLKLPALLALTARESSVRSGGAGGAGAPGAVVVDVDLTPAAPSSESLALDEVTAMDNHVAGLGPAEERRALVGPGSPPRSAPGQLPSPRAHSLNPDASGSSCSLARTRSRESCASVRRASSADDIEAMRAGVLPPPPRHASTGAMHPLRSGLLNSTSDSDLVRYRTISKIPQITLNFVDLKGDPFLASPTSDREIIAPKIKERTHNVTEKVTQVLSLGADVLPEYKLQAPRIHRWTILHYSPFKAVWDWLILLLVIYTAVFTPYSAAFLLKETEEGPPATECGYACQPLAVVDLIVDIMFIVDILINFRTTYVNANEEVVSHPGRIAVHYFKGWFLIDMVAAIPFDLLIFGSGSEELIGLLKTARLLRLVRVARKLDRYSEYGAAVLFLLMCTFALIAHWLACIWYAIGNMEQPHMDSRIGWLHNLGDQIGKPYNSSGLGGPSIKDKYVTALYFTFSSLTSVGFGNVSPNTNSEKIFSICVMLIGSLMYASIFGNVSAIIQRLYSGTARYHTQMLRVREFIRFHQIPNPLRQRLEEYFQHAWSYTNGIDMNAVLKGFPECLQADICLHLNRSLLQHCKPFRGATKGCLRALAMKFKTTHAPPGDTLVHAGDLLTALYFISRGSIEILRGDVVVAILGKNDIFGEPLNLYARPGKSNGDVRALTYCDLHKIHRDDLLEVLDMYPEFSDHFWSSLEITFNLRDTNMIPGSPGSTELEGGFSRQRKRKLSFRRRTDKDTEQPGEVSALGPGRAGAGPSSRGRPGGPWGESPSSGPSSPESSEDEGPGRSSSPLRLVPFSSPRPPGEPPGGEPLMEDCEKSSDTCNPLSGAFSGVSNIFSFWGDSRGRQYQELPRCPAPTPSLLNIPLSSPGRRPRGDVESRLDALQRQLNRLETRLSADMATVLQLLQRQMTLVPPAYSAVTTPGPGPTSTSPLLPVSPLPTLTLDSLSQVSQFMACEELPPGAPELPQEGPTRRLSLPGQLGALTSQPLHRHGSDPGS

Row | SMILES | hERG current change (%, negative = inhibition) at 1uM [%]
1 | Cc1cnc(=O)[nH]c1SCc1ccccc1F | 15
2 | O=C(NC1CCN(C(=O)Nc2cccc(Cl)c2)CC1)C1CCCCC1 | 0.0523
3 | CCC(C)(C)NC(=O)CN(C(=O)c1csnn1)c1ccccc1-c1ccccc1 | 11.1
4 | CC[C@@]1(O)C(=O)OCc2c1cc1n(c2=O)Cc2cc3ccccc3nc2-1 | 7.44
5 | CCOc1ccc(S(=O)(=O)Nc2ccccc2C(=O)N(C)C2CCN(C)CC2)cc1 | 18.5
6 | CC(C)(C)c1nnc2sc(SCCN3C(=O)c4ccccc4C3=O)nn2c1=O | -2.56
7 | Cc1ccn2cc(CNS(=O)(=O)c3ccc4c(c3)OCCO4)nc2c1 | 4.12
8 | Cn1c(CSc2ncccn2)nnc1SCC(=O)N1CCCCCC1 | 25.4
9 | CC(CN1C(C)CCCC1C)OC(=O)c1ccc(Cl)cc1 (stereo not shown) | -10.8
10 | CCOc1cc(/C=N/NC(=O)c2cccs2)ccc1OC(=O)N1CCOCC1 | 16.1
11 | CC(/C=C/c1ccc2c(c1)OCO2)=N/NC(=O)c1ccncc1 | -1.24
12 | O=C(Nc1ccc2c(c1)OCO2)c1ccc(=O)[nH]n1 | 6.05
13 | CCOC(=O)c1[nH]c2ccc(OC)cc2c1NC(=O)CCN1CCSCC1 | 3.32
14 | CCc1nnc(NC(=O)CSc2nnc(CSc3nc(C)cc(C)n3)n2C)s1 | 12.1
15 | Cc1nn2c(C)c(C(=O)Nc3ccccc3)cnc2c1C#N | 14
16 | O=C(NCc1ccccn1)c1c(O)c2c([nH]c1=O)CCCC2 | 11.5
17 | COc1ccc(C(=O)C2CCN(C(=O)c3ccc(C)cc3)CC2)cc1 | -47.7
18 | COC(=O)c1ccc(NCC(=O)Nc2cc(C)cc(C)c2)cc1 | 5.25
19 | CCCc1cc(=O)[nH]c(SCCOC(=O)c2ccccc2)n1 | -2.71
20 | Cc1nonc1NC(=O)CSc1nc2ccccc2o1 | 6.1
21 | O=C(COc1cccnc1[N+](=O)[O-])Nc1cc(S(=O)(=O)N2CCCCC2)ccc1Cl | 10.1
22 | CC(C)(C)OC(=O)N1CCC(CC2CC(c3ccc(Cl)cc3)=NO2)(C(=O)NCC2CCCCC2)CC1 (stereo not shown) | -0.26

Row | SMILES | hERG current change (%, negative = inhibition) at 1uM [%]
23 | CCCCn1c(N)c(N(CCC(C)C)C(=O)c2ccc(N3CCCC3=O)cc2)c(=O)[nH]c1=O | 12.4
24 | COc1ccc(Br)cc1C1CC(=O)N2CN(C)CSC2=C1C#N (stereo not shown) | 15.7
25 | COc1ccc(C(=O)N2CCN(c3nc4ccccc4o3)CC2)cc1OC | -6.13
26 | COC(=O)c1scc(C)c1NC(=O)CC1NCCNC1=O (stereo not shown) | 11.9
27 | CCCN(CCC)C(=O)c1cc(-c2ccc3c(c2)OCO3)nc2ccccc12 | -2.07
28 | Cc1cccc(C(=O)N(Cc2ccco2)c2c(N)n(Cc3ccccc3)c(=O)[nH]c2=O)c1 | 2.39
29 | O=C(c1cc2ccccc2cc1O)N1CCN(c2ccccn2)CC1 | 3.7
30 | Cc1cc(OCC(=O)NNC(=O)c2ccncc2)ccc1C(C)C | 1.1
31 | NC(=O)c1ccccc1NC(=O)Cc1cccs1 | 14.8
32 | Cc1cc(NC(=O)c2ccc(C)s2)n(-c2nc3ccccc3[nH]2)n1 | 6.82
33 | Cc1c(NC(=O)C2CC(c3c(F)cccc3Cl)=NO2)c(=O)n(-c2ccccc2)n1C (stereo not shown) | 20.4
34 | O=C1CCCC(=O)C1Sc1ccc(Cl)cc1 | 15.6
35 | O=C(Nc1nc(-c2ccccn2)cs1)C1COc2ccccc2O1 (stereo not shown) | 9.5
36 | CC[C@H](C)Cc1cn([C@@H](CCCN=C(NC(=O)OC(C)(C)C)NC(=O)OC(C)(C)C)C(=O)NCCCCCCCCCCC(=O)N2CCN(C(=O)OC(C)(C)C)CC2)nn1 | 7.66
37 | Cc1cc(C)n(-c2c(C)[nH]c3ccccc23)n1 | 11.1
38 | COC(=O)CCC(=O)OC1(C)C(=O)C2=CN(CCc3c[nH]c4ccccc34)C(c3ccc(OC)cc3)=CC2=C(Br)C1=O (stereo not shown) | 8.64
39 | COc1ccc(N(C(=O)CNC(=O)c2ccco2)C(C(=O)NC2CCCC2)c2ccco2)cc1 (stereo not shown) | 12.3
40 | Cc1nonc1NC(=O)c1ccccc1Br | 11.3
41 | NC(=O)C1CCN(c2ccnc3cc(Cl)ccc23)CC1 | -4.7
42 | O=C1N=c2ccc(Br)cc2=C1c1sc(=O)[nH]c1O | 17.2
43 | Cc1cccc(Nc2cnn(C34CC5CC(CC(CC(=O)O)(C5)C3)C4)c(=O)c2Cl)c1 | 6.75
